# Assay results: PubChem BioAssay AID686979 (National Center for Advancing Translational Sciences (NCATS), 2013)
# Several values for one entry are separate records, joined by “and”; a condition that tells them apart may be missing. Equal entries are not always repeated. Screen size: about 420,000 compounds; about 50,000 (12%) were called active. This list was built around the results that the source calls inconclusive (neither active nor inactive); the mix of calls is not that of the screen. The call rests on the fitted dose curve; in most records, active means well fitted inhibition curve with a large enough effect; inconclusive means small, poorly fitted or top-dose-only effect; inactive means flat fitted curve, though single readings scatter. Potencies beside an inconclusive call are fits to weak or partial responses and may not hold up.
# Assay: qHTS for Inhibitors of human tyrosyl-DNA phosphodiesterase 1 (TDP1): qHTS in cells in presence of CPT; further: nearly all actives have a fitted effect of over 55% in size
# Conditions: chicken DT40 Tdp1-/-;hTDP1 cells + 20 nM CPT, ATP luminescence, 48 h; activity change, negative = growth inhibition: at 46.2 µM (top of the series) unless noted
# Summary of the method: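 Chicken DT40 Tdp1-/- cells complemented with human TDP1, 400 cells/well, exposed to compounds plus 20 nM camptothecin for at least 48 h at 37 C; viability read as ATP content by CellTiter-Glo luminescence.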
# On the % scale 0 is the no-effect control and ±100 the full control effect; potency means the concentration at half of the fitted maximal effect; tags describe the fitted curve by direction and shape.
SMILES,Potency,"activity change, negative = growth inhibition"
COc1ccc(NS(=O)(=O)c2cc(NC(=O)c3cnccn3)ccc2N2CCCC2)cc1,"inconclusive: 29.1 µM [inhibitor, single point]",–
CCOC(=O)Cn1c(=O)oc2cc(S(=O)(=O)N3CCN(c4cc(C)ccc4C)CC3)ccc21,active: 18.4 µM,–
Cc1ccc(S(=O)(=O)c2nc(-c3ccc(F)cc3)oc2N2CCOCC2)cc1,inactive,–
O=C(C[C@@H]1C/C=C\C[C@@H](Cc2ccc(F)cc2)C(=O)OC[C@@H](Cc2c[nH]c3ccccc23)NC1=O)NCCO,"inconclusive: 29.1 µM [inhibitor, single point]",–
CCCOc1ncnc2c1[nH]c1ccc(C)cc12,"inconclusive: 20.6 µM [inhibitor, single point]",–
COc1cccc(C(c2ccccc2)N2C3CCC2CN(S(=O)(=O)c2ccc(F)cc2)CC3)c1 (stereo unspecified),"inconclusive: 16.4 µM [inhibitor, single point]",–
CN(C)CCNC(=O)c1ccc2c(c1)N(Cc1c(F)cccc1Cl)C(=O)c1ccccc1S2,active: 16.4 µM,–
COc1ccccc1-n1ccnc1SCC(=O)NCc1ccco1,"inconclusive: 29.1 µM [inhibitor, single point]",–
O=C(NN=Cc1ccc([N+](=O)[O-])cc1)C1CC1,inactive,–
COc1ccc(N2CCN(C(=O)Cc3ccc(Cl)cc3)CC2)cc1,inactive,–
CC(O)(c1ccccc1)c1nc(-c2ccccc2)cs1 (stereo unspecified),active: 20.6 µM,–
COc1ccc(OCc2cc(C(=O)N3CCCC(CO)C3)no2)c2ccccc12 (stereo unspecified),"inconclusive: 25.9 µM [inhibitor, single point]",–
CCOC(=O)c1cc(C(=O)NN)c(=O)[nH]c1C,inactive,–
COC(=O)c1cc2oc3ccccc3c2n1CC(=O)Nc1ccc(C)cc1C,"inconclusive: 6.51 µM [inhibitor, single point]",–
Cc1ccc(C(=O)Nc2cccc(C(F)(F)F)c2)cc1NC(=O)c1[nH]cnc1C(N)=O,inactive,–
COc1ccccc1CN1CCNC(=O)C1CC(=O)NCc1cn(C)nc1C (stereo unspecified),inactive,–
Cc1cccc(NC(=O)c2nc(S(=O)(=O)Cc3ccccc3)ncc2Cl)c1,active: 0.92 µM,–
COc1cc(Cl)c(CN2CCC(CO)(CCOc3ccccc3)CC2)cc1OC,"inconclusive: 25.9 µM [inhibitor, single point]",–
COc1ccc(NS(=O)(=O)c2cccc(C(=O)NCC3(N4CCCCC4)CCCCC3)c2)cc1,"inconclusive: 29.1 µM [inhibitor, single point]",–
c1ccc(CNc2ccnc(-c3ccc4c(c3)OCO4)n2)cc1,"inconclusive: 32.6 µM [inhibitor, single point]",–
CC(CC(=O)NCc1ccc(F)cc1)c1ccccc1 (stereo unspecified),inactive,–
CC[C@H]1NC(=O)[C@@H](NC(=O)c2ncccc2O)[C@@H](C)OC(=O)[C@H](c2ccccc2)NC(=O)[C@@H]2CC(=O)CCN2C(=O)[C@H](Cc2ccccc2)N(C)C(=O)[C@@H]2CCCN2C1=O,inactive,–
O=C(NC(=S)N1CCN(c2ccc([N+](=O)[O-])cc2)CC1)c1ccc(F)cc1,"inconclusive: 29.1 µM [inhibitor, single point]",–
COc1ccccc1Nc1nc(-c2ccc([N+](=O)[O-])cc2)nc2ccccc12,"inconclusive: 23.1 µM [inhibitor, single point]",–

SMILES,Potency,"activity change, negative = growth inhibition"
CC(=O)Nc1ccc(-c2ccnc3c2CC(C(=O)NCCc2ccccc2)O3)cc1 (stereo unspecified),"inconclusive: 29.1 µM [inhibitor, single point]",–
CC(=O)CSc1nc(CCc2ccccc2)c(C#N)c(=O)[nH]1,inactive,–
COc1ccccc1CNC(=O)COC(=O)c1ccccc1SCC(=O)N1CCCC1,"inconclusive: 29.1 µM [inhibitor, single point]",–
COc1ccc(-c2cc(C(F)(F)F)nc(-n3cc(Cl)cn3)n2)cc1,active: 14.6 µM,–
COCCCNC(=O)c1ccc2nc(CCc3ccccc3)oc2c1,"inconclusive: 18.4 µM [inhibitor, partial curve]",–
C=CCn1c(O)c(N=NC(=O)OC(C)(C)C)c2ccccc21,inactive,–
Nc1ccccc1-c1nnc(SCc2ccccc2Cl)[nH]c1=O,"inconclusive: 29.1 µM [inhibitor, single point]",–
O=C(Nc1ccc(Cl)cc1)N1CCC(c2nc(-c3ccccc3Cl)no2)CC1,active: 23.1 µM,–
Cc1ccc(NC(=S)Nc2ncccc2C)c(C)c1,–,inconclusive: -37.1% [inhibitor]
Cn1cnc(S(=O)(=O)N2CCCC(C(=O)Nc3ccc(OC(F)(F)F)cc3)C2)c1 (stereo unspecified),"inconclusive: 23.1 µM [inhibitor, single point]",–
C1CCN2C[C@H]3C[C@H](CN4CCCCC34)C2C1 (stereo partly specified),inactive,–
Cc1cc2cc(CCNC(=O)c3cccc([N+](=O)[O-])c3)c(=O)[nH]c2cc1C,"inconclusive: 25.9 µM [inhibitor, single point]",–
CN(CC(=O)Nc1ccc(F)cc1)C(=O)COc1ccc([N+](=O)[O-])cc1Cl,"inconclusive: 9.2 µM [inhibitor, partial curve]",–
c1ccc(COC2CCCN(Cc3nc(-c4cccs4)no3)C2)nc1 (stereo unspecified),inactive,–
CCOc1ccc(S(=O)(=O)Nc2ccc3c(c2)n(C)c(=O)n3C)cc1,"inconclusive: 23.1 µM [inhibitor, single point]",–
CC(=O)Nc1ccc(N2C(=O)CC(Sc3nc4ccccc4s3)C2=O)cc1 (stereo unspecified),"inconclusive: 25.9 µM [inhibitor, single point]",–
O=C(COC(=O)/C=C/c1cccc(Cl)c1)NC1CC1,inactive,–
CCOC(=O)CN(C)C(=O)c1cnn(-c2ncc3c(n2)-c2ccccc2CCC3)c1C,–,inactive: 3.83% [at 9.04 µM]
CN1CCN(C2CN(C3CCCC3)S(=O)(=O)C2)CC1 (stereo unspecified),inactive,–
O=C1C=C(c2ccc(-c3ccccc3)c(F)c2)C[C@@H](c2ccc(F)cc2)C1,"inconclusive: 29.1 µM [inhibitor, single point]",–
COCCn1c(C)cc(/C=N/NC(=O)c2cccnc2)c1C,inactive,–
COc1ccc(CCN2C(=O)CC(Cc3ccc(Br)cc3)C2=O)cc1OC (stereo unspecified),"inconclusive: 29.1 µM [inhibitor, single point]",–
Cc1nnc(SCc2c(Cl)cccc2Cl)s1,"inconclusive: 29.1 µM [inhibitor, single point]",–
O=C(O)C1=CCC=CC1C(=O)O (stereo unspecified),inactive,–

SMILES,Potency,"activity change, negative = growth inhibition"
CCOc1ccc(CNC(=O)Cn2c(=O)c3cccn3c3ccccc32)cc1,"inconclusive: 18.4 µM [inhibitor, partial curve, poor fit]",–
CCOC(=O)C1=CC[C@@H](c2cc(OC)c(OC)c(OC)c2)N(S(=O)(=O)c2ccc(C)cc2)[C@H]1C(=O)OCC,active: 25.9 µM,–
N#Cc1cc([N+](=O)[O-])ccc1N1CCCC1,inactive,–
CCOc1ccc(OCC)c(NS(=O)(=O)c2ccc3c(c2)CCN3C(=O)C2CCC2)c1,"inconclusive: 29.1 µM [inhibitor, single point] and inconclusive: 18.4 µM [inhibitor, partial curve]",–
COC(C[C@@H]1O[C@@H]1[C@H](O)[C@@H](C)OCc1ccccc1)OC,inactive,–
COc1cc2c(cc1OC)C(C(=O)Nc1ccc3c(c1)OCCO3)C1c3ccccc3CCN1C2=O (stereo unspecified),"inconclusive: 16.4 µM [inhibitor, partial curve]",–
Cc1ccc(-c2cc(NC(=O)c3ccccc3[N+](=O)[O-])n[nH]2)cc1,"inconclusive: 23.1 µM [inhibitor, single point]",–
CC(CC(=O)Nc1ccc(Cl)c(S(=O)(=O)N2CCOCC2)c1)c1ccccc1 (stereo unspecified),"inconclusive: 14.6 µM [inhibitor, partial curve, poor fit]",–
Cc1cc([N+](=O)[O-])ccc1Nc1nc2ccccc2n2cnnc12,"inconclusive: 23.1 µM [inhibitor, single point]",–
CCOc1ccc(NC(=O)CSc2nc3nc(C)cc(C)n3n2)cc1,"inconclusive: 29.1 µM [inhibitor, single point]",–
COc1ccc(CN2CCC(CO)(CCOc3ccccc3)CC2)cc1C,"inconclusive: 29.1 µM [inhibitor, single point]",–
COc1ccc(-c2noc(CCC(=O)N3CCN(c4cccc(Cl)c4)CC3)n2)cc1,"inconclusive: 29.1 µM [inhibitor, single point]",–
COc1ccc(-n2cnnc2SCC(=O)NC2CC2)cc1,inactive,–
O=C(Nc1ccccc1)N1CCCc2ccccc21,inactive,–
CCN(CC)CCN1c2ccccc2Sc2ccccc21,"inconclusive: 20.6 µM [inhibitor, single point]",–
CSc1ccc(/C=C/C(=O)OCC(=O)N2CCc3ccccc32)cc1,inactive,–
N#CCCn1c2ccccc2c2nc3ccccc3nc21,"inconclusive: 16.4 µM [inhibitor, partial curve, poor fit]",–
COc1ccc(Cl)cc1C(=O)Nc1ccc(OCC(=O)N2CCOCC2)cc1,inactive,–
Cn1c(SCC(=O)NNC(=O)Nc2ccc(Cl)cc2)nnc1-c1ccccc1,inactive,–
COc1ccccc1CNc1ccnc(-c2ccccc2CN(C)C)n1,"inconclusive: 29.1 µM [inhibitor, single point]",–
COc1c(/C=N/Nc2nc(N3CCCCC3)nc(N3CCCCC3)n2)cccc1[N+](=O)[O-],"inconclusive: 25.9 µM [inhibitor, single point]",–
O=C(NCc1ccc2c(c1)OCO2)OCc1ccccc1,inactive,–
Cc1ccc2oc(=O)c3cnn(CC(=O)NCCCOC(C)C)c3c2c1,"inconclusive: 20.6 µM [inhibitor, partial curve]",–
